According to the supplement of paper PMC12217912:
Some of the results follow. The full chains were built here from the parent and the listed change. Inactive controls read about 0.05.

B1: TEV protease; numbered along this chain (parent)
chain: MGESLFKGPRDYNPISSSICHLTNESDGHTTSLYGIGFGPFIITNKHLFRRNNGTLVVQSLHGVFKVKDTTTLQQHLVDGRDMIIIRMPKDFPPFPQKLKFREPQREERICLVTTNFQTKSMSSMVSDTSCTFPSGDGIFWKHWIQTKDGQCGSPLVSTRDGFIVGIHSASNFTNTNNYFTSVPKNFMELLTNQEAQQWVSGWRLNADSVLWGGHKVFMVKPEEPFQPVKEATQL

Variants of: B1
Experiment: raw area under fraction-flipped curve 0-4 h after induction (AUC4h, not background-subtracted), DNA-recorder readout of cleavage of the substrate (dimensionless); higher = more cleavage of the substrate by the protease variant
Conditions: temperature: 34 °C; time window: 0-4 h after rhamnose induction
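Note: Bxb1 expression induced with 0.2% (w/v) L-rhamnose at OD600 near 0.5, cultures sampled hourly, flipped fraction per protease–substrate barcode pair counted by paired-end Illumina sequencing.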

| Variant | area with substrate DNLYFQS | area with substrate GNLYFQS | area with substrate HNLYFQS | area with substrate INLYFQS | area with substrate KNLYFQS | area with substrate LNLYFQS | area with substrate SNLYFQS | area with substrate TNLYFQS | area with substrate WNLYFQS | area with substrate YNLYFQS |
| --- | --- | --- | --- | --- | --- | --- | --- | --- | --- | --- |
| G136K | 0.0774 | 0.085 | 0.0437 | 0.0429 | 0.0606 | 0.0648 | 0.0734 | 0.0543 | 0.058 | 0.068 |
| D128G | – | – | – | – | – | – | – | – | – | 0.083 |
| V64Y | 0.101 | – | – | 0.0753 | 0.0739 | 0.067 | – | 0.0517 | – | 0.071 |
| V64E | – | – | 0.0368 | – | – | – | – | 0.0673 | 0.0186 | – |
| V64G | – | – | – | – | – | 0.0722 | – | 0.0901 | – | – |
| W144F | 0.082 | 0.057 | – | 0.0618 | – | 0.064 | – | 0.0721 | – | – |
| H168S | 0.0695 | – | 0.0665 | – | – | 0.0452 | 0.0642 | – | – | – |
| E224D | 0.091 | 0.0672 | 0.067 | – | – | – | – | 0.0566 | 0.0577 | 0.0562 |
| V200G | – | – | 0.0615 | 0.0511 | – | 0.0618 | – | 0.068 | 0.0571 | 0.123 |
| V200K | – | – | 0.0388 | – | – | – | 0.0743 | – | – | – |
| V200Q | – | – | 0.0502 | – | – | – | – | – | – | – |
| K120T | 0.075 | 0.0692 | 0.0632 | – | – | 0.0643 | – | – | – | – |
| K120E | 0.0803 | – | 0.0605 | 0.0893 | 0.067 | – | – | 0.0606 | 0.0614 | 0.0615 |
| K120A | – | 0.0539 | 0.0549 | 0.0455 | 0.0766 | 0.0735 | – | – | 0.0548 | 0.066 |
| K120I | 0.0856 | – | 0.0675 | – | – | 0.0584 | 0.0636 | – | – | 0.0409 |
| T72F | 0.0614 | 0.0873 | 0.0583 | – | – | 0.0664 | 0.0693 | 0.0565 | 0.0559 | – |
| G80A | 0.0949 | – | – | 0.0665 | 0.0668 | 0.071 | – | 0.0914 | 0.0644 | – |
| G80D | – | 0.0747 | 0.0685 | – | – | – | – | 0.0673 | 0.0245 | 0.0755 |
| K216M | – | 0.0744 | – | – | – | – | – | – | – | 0.0916 |
| K216P | – | – | – | – | 0.0642 | – | 0.0567 | – | 0.0803 | 0.0596 |

| Variant | area with substrate DNLYFQS | area with substrate GNLYFQS | area with substrate HNLYFQS | area with substrate INLYFQS | area with substrate KNLYFQS | area with substrate LNLYFQS | area with substrate SNLYFQS | area with substrate TNLYFQS | area with substrate WNLYFQS | area with substrate YNLYFQS |
| --- | --- | --- | --- | --- | --- | --- | --- | --- | --- | --- |
| K216A | 0.0491 | 0.0569 | – | 0.0633 | – | 0.0539 | 0.0504 | 0.0638 | – | 0.0685 |
| K216C | – | – | – | – | – | 0.0567 | – | – | – | – |
| P96Q | – | – | 0.0668 | 0.0608 | 0.086 | – | – | 0.0615 | – | – |
| P96T | – | – | 0.0977 | – | 0.0658 | – | – | 0.066 | 0.0684 | – |
| P96W | 0.0677 | 0.0678 | 0.0572 | 0.0604 | – | 0.0589 | 0.0586 | 0.0599 | 0.0622 | – |
| R160F | 0.0787 | 0.076 | 0.0745 | 0.0767 | 0.0693 | 0.0685 | 0.0671 | – | 0.0588 | – |
| R160M | – | – | – | – | – | 0.0802 | – | – | – | – |
| C152H | – | – | – | – | 0.0599 | – | – | – | – | – |
| L112A | 0.0652 | 0.0627 | 0.0581 | 0.0662 | 0.0692 | 0.0572 | 0.0473 | 0.0606 | 0.0631 | 0.0547 |
| L112D | 0.0371 | – | 0.0551 | 0.0564 | – | 0.0612 | 0.0397 | 0.0234 | – | 0.0452 |
| L112T | 0.0584 | – | 0.053 | 0.0441 | 0.052 | – | 0.0679 | 0.064 | 0.0446 | 0.0411 |
| G8N | – | – | – | – | – | – | 0.105 | 0.0853 | 0.0565 | – |
| G8M | – | – | – | 0.0537 | – | – | 0.0627 | – | – | 0.067 |
| G8I | – | 0.0795 | 0.0637 | – | – | 0.0644 | – | 0.0926 | – | 0.0152 |
| T176H | – | – | 0.0682 | 0.0607 | 0.0607 | 0.0627 | – | 0.0516 | 0.0549 | 0.0754 |
| T176E | – | 0.0792 | 0.0532 | 0.0671 | – | 0.0607 | – | – | 0.0548 | 0.0459 |
| L56G | – | 0.0536 | 0.0509 | – | – | – | 0.0497 | 0.0532 | 0.0399 | 0.0439 |
| A232Y | 0.0831 | 0.0904 | 0.0779 | 0.0717 | 0.0885 | – | 0.0671 | 0.0631 | 0.0624 | – |
| M88R | 0.0531 | 0.0454 | – | 0.0409 | – | 0.0488 | – | 0.043 | 0.0462 | – |
| M88P | 0.0512 | – | 0.0431 | – | – | 0.0595 | 0.0592 | 0.0559 | 0.0812 | 0.0485 |

Same assay, conditions: temperature: 34 °C; time window: 0-4 h after rhamnose induction

| Variant | area with substrate FNLYFQS | area with substrate MNLYFQS | area with substrate PNLYFQS | area with substrate RNLYFQS | area with substrate VNLYFQS | area with substrate NNLYFQS | area with substrate QNLYFQS |
| --- | --- | --- | --- | --- | --- | --- | --- |
| V64E | 0.0689 | 0.0564 | 0.0738 | 0.0658 | – | – | – |
| V64G | – | – | – | – | 0.0521 | – | – |
| W144F | 0.0682 | 0.0725 | 0.0759 | 0.0768 | – | 0.0823 | 0.0801 |
| H168S | – | – | 0.066 | – | – | – | – |
| E224D | 0.0505 | 0.0562 | 0.0634 | – | – | – | – |
| V200G | – | 0.062 | – | – | – | – | – |
| K120T | 0.105 | – | – | – | – | – | – |
| K120E | – | – | 0.083 | 0.0531 | – | 0.0618 | – |
| K120A | – | 0.0588 | 0.0395 | 0.0598 | – | – | – |
| K120I | 0.0514 | 0.006 | 0.059 | – | 0.0501 | – | – |
| T72F | 0.0601 | 0.0585 | 0.0574 | – | – | – | – |
| G80A | – | – | 0.0855 | – | – | – | – |
| G80D | 0.075 | – | 0.0644 | – | 0.0594 | – | 0.0831 |
| K216P | – | 0.0663 | – | – | – | – | – |
| K216A | – | – | – | 0.037 | 0.0661 | 0.053 | – |
| K216C | – | 0.0484 | 0.0619 | – | – | – | – |

| Variant | area with substrate FNLYFQS | area with substrate MNLYFQS | area with substrate PNLYFQS | area with substrate RNLYFQS | area with substrate VNLYFQS | area with substrate NNLYFQS | area with substrate QNLYFQS |
| --- | --- | --- | --- | --- | --- | --- | --- |
| P96Q | 0.0616 | 0.0589 | – | – | – | – | – |
| P96T | 0.0677 | – | – | – | – | – | – |
| P96W | – | – | – | 0.0567 | 0.0782 | 0.044 | – |
| R160F | 0.0743 | 0.073 | 0.0775 | – | 0.0598 | – | – |
| C152H | – | 0.0453 | 0.0615 | – | – | 0.0597 | – |
| L112A | – | 0.0607 | 0.0507 | 0.0651 | – | – | – |
| L112D | 0.0877 | – | 0.0455 | – | – | – | – |
| L112T | 0.0631 | – | 0.0767 | – | – | 0.0655 | – |
| G8N | – | – | 0.0739 | 0.0305 | 0.0713 | – | – |
| G8I | – | – | – | – | 0.0815 | – | – |
| T176H | 0.0585 | 0.0711 | 0 | – | 0.0763 | 0.0576 | – |
| T176E | 0.0603 | 0.0678 | 0.0681 | – | 0.0571 | – | – |
| L56G | – | 0.0475 | 0.0429 | – | 0.0451 | 0.0303 | – |
| A232Y | 0.0571 | 0.0622 | – | 0.0788 | – | 0.0742 | – |
| M88R | 0.0498 | 0.05 | – | – | – | – | – |
| M88P | 0.0672 | – | 0.0813 | – | – | – | – |
